We go through 167 variants from the RNAGym collection of RNA variant scans (doi:10.7554/elife.90254).

The source gives no read counts; variants with many changes may rest on few reads.

B1: LINE1-full (parent)
chain: UACGUAGGUGGUUUUCCCCUGAUAGUGCUAAGGGGGCCUGGAAGUUUGGACUGGGCAGAGCUCAACACAGCGUGGCAAAGUGGCUGUGGCUAGACUGCCUCUCUGGAUUCCUCGUCACUCAGCAGGGCAUCUCUGAGAGAAAUGCC

Variants of B1 are the subject of the series. In words: self-cleavage, relative activity (ratio to wild type); higher = more cleavage; in vitro, sequencing; the parent is a self-cleaving ribozyme.
A24G G58U U62C: the self-cleavage amounted to 0.09.
Consider U14C C110U A141G, for which the self-cleavage amounted to 1.53.
Consider U45C A65U U130C A140G, for which the self-cleavage is 0.55.
The value for A59G U62C U109C A141G was 0; that for A31G A59G A67G was 0.
Regarding U39C A57G G125A, the self-cleavage turned out to be 0.16.
Consider U15C U73C A107G, for which the self-cleavage was 1.31.
As to U29C U112C G114A U130A, the self-cleavage is 1.76.
On to U96C U108C C113A, for which the self-cleavage is 0.
For the variant G35A G40A U47C, the self-cleavage came out at 0.21.
As to U47C C61U U87C A129U, the self-cleavage came to 0.02.
For the variant G21A U85C U112C A142G, the self-cleavage is 0.1.
As to U87A C98U A124G, the self-cleavage is 0.06.
With U14C U47C U130C, the self-cleavage is 2.51.
Regarding U39A U115A U119A A121G, the self-cleavage is 1.23.
Consider A22G A43G U134C A142G, for which the self-cleavage came out at 1.56.
Consider G32A U100C U119A, for which the self-cleavage was 1.49.
Turning to U14C A43G G86A, the self-cleavage worked out at 0.13.
The value for U13C U14G A59G U81A was 0.19.
As for U5C U9C A50U U85C U87A U132C U134C, the self-cleavage turned out to be 0.
Take U15C U46C U52A: the self-cleavage was 1.22.
On to A2G A92G U143A, for which the self-cleavage turned out to be 0.17.
As for A22G A121G A124C, the self-cleavage was 2.3.
Regarding U47G G54A U130C, the self-cleavage is 0.49.
For U12A U13C A30U U62C U96C the value was 1.38; for U9C A43U U47C, 1.15.
The value for A50U U73C U108C was 1.28; that for U96C C128U U132G was 0.21; that for C38U U96A A138G was 0.03.
Consider A67G A79G U81A, for which the self-cleavage amounted to 0.72.
As for A69G A121C A124U, the self-cleavage was 0.
Turning to U13C G40A A92G A107G A141G, the self-cleavage worked out at 0.05.
Take G70A A77G A138G: the self-cleavage was 0.26.
As to A24G C38U A79G, the self-cleavage stood at 0.73.
For the variant G8U U20A U96A U104C U119A, the self-cleavage came out at 0.54.
Turning to U20A A65G A67G A140U, the self-cleavage came to 0.1.
With U5C A64G A77G U81A C131U, the self-cleavage turned out to be 0.78.
As for U29A A30G U62C A121U, the self-cleavage was 0.08.
For the variant A69G G139U A140G A142G, the self-cleavage turned out to be 0.76.
The value for A22U U52C U100A was 0.4; that for U15C A94G U96A A121U was 0; that for G32A A59C A79G was 0.39.
Consider U46A G48A U62C G75C U85A, for which the self-cleavage was found to be 0.01.
The value for U108C C111A A138G was 1.27; that for A64G U100A A129G was 0; that for A64G U81A U85C was 0.
As to U14C A79G U104A, the self-cleavage came out at 0.71.
Regarding A57U U73A U87C A141G, the self-cleavage was found to be 0.01.
Turning to U52A U81A U87C A124G, the self-cleavage was determined as 0.72.
As for U5C A22G U52A, the self-cleavage came to 2.12.
In the case of U15C C19U U23C U73C A78U A117U A129G, the self-cleavage worked out at 2.89.
In the case of G4U U87C A121U A142G, the self-cleavage is 0.
As for A2G U81A U119A, the self-cleavage was 1.4.
On to A65G A78U U102C A121G, for which the self-cleavage was 0.
The value for U14C A142G C145A was 2.26; that for G35U U100C C113U was 1.49; that for U73C C111U A117G C118A A140G was 1.86.
Regarding G33U A69U C118U U130A, the self-cleavage amounted to 0.04.
Regarding U23C U119C A124U A140G, the self-cleavage amounted to 2.76.
For the variant U13C A24G A69G A92U, the self-cleavage stood at 0.22.
U46C U85A U132A: the self-cleavage worked out at 0.05.
On to G33A U87G U112C U115A, for which the self-cleavage worked out at 0.
The value for U5C U134C A138G was 0.72; that for A67U U87C A107G was 0.12; that for A31G U73A C98A was 0.24.
In the case of U20C U87C U119A, the self-cleavage came out at 0.16.
In the case of U46A A64G A140G, the self-cleavage turned out to be 0.2.
The value for A6G A22G U132C U134C was 0.
For U39C A94G U119C U143G the value was 0; for A2G U14C A77U U143A, 0.36; for A2G A67U A107G U112A A141G, 0.
In the case of A57U U81C U134A U143C, the self-cleavage came out at 0.11.
For the variant A22G U62C U100C A124G, the self-cleavage was 0.
As to U13A A79G G93A U119C A136U, the self-cleavage was 0.02.
In the case of G7A U52C A138G, the self-cleavage came out at 1.65.
In the case of U46C A64U G93A, the self-cleavage turned out to be 0.02.
With C37U A78U U100C A138U, the self-cleavage came to 2.67.
For A22G U39C U46C, the self-cleavage stood at 0.69.
Regarding A30G C71A A77G U134A, the self-cleavage turned out to be 0.3.
Regarding U13C U102A U108C A121U, the self-cleavage was determined as 1.23.
Take A69G U100C U132A: the self-cleavage worked out at 0.
On to U15C A22G U47A A107G, for which the self-cleavage was 0.72.
Take U15C A107G A129U: the self-cleavage was determined as 1.15.
The value for U104C A124G U132C was 1.13; that for A59G A69G A79G U91A U115A was 0; that for U12C U20C G53A was 1.07.
Turning to U14C A22G A77U A79G, the self-cleavage was 0.88.
Regarding A31U C118U C123A A141G, the self-cleavage came out at 1.65.
Regarding G32U U102C U104A, the self-cleavage came out at 0.92.
The value for U20C U102C A107G was 1.77; that for U26G U87G A140G was 0.33.
With U87A U108C U143C, the self-cleavage was 0.
With U15A U20C U100C A124U, the self-cleavage is 0.
As to U62C U102C A142G, the self-cleavage was determined as 0.03.
In the case of A24U A67U U100C, the self-cleavage was determined as 0.38.
On to U5C A31U U45A, for which the self-cleavage came out at 1.14.
For A31G G34U U104C C116U A136G, the self-cleavage came to 1.21.
On to U9A U20C C99U U104A U108C, for which the self-cleavage came to 0.3.
Regarding U12C U14C A77G U96A U130C, the self-cleavage stood at 0.
With G35A A77G A79G C84A, the self-cleavage is 0.13.
The value for A64G U130C A141G was 0.43.
As for G53A U112C A142G, the self-cleavage worked out at 1.04.
Regarding U9C U39C A129U, the self-cleavage is 0.9.
The value for U1C G11A U47C A141G was 0.1; that for A65G U96C A138G was 0; that for A65G A117G U134A was 0.
On to U9C G82A A140G, for which the self-cleavage stood at 1.77.
In the case of U9C U14C U45C, the self-cleavage turned out to be 1.67.
For the variant U115C U119C A142G, the self-cleavage was 2.71.
Regarding G60A C123U A141G, the self-cleavage came to 0.03.
Take U45C A78G U134C: the self-cleavage came out at 1.92.
As for A43G A57G U143A, the self-cleavage amounted to 0.21.
On to A57U U104A A138G, for which the self-cleavage was 0.05.
Consider A42G A50G U52C C56U A78G U85A A136G, for which the self-cleavage worked out at 0.08.
On to U26A A92G A107G G122A, for which the self-cleavage was determined as 0.18.
For G4U U100A U112C the value was 1.12.
As for U45C A69G G72A G74A, the self-cleavage worked out at 0.3.
A43G A59G A77G: the self-cleavage is 0.
For the variant A22G U26A A57G A92U U119C A121U A129G, the self-cleavage was determined as 0.
For U73A A78U A107G A121U the value was 2.9.
The value for A31U U45C U62C G72U was 0.1; that for U26C A30U U39C U132A was 1.23; that for U85C C120U U134C was 0.26.
As to G72U U81A U112G, the self-cleavage was 1.8.
As for A22G A59G U62C A136G, the self-cleavage amounted to 0.19.
As to A6G U26C G33A, the self-cleavage came to 0.55.
With G34C G48A U73A A78G, the self-cleavage worked out at 0.87.
For the variant U9A A78G A117G, the self-cleavage turned out to be 0.84.
On to U62C U100A U119G U132C, for which the self-cleavage was found to be 0.
Take A50G A92G A138G: the self-cleavage was found to be 0.
In the case of G54C A65G U119C, the self-cleavage is 0.
For A2G A43G A140G the value was 0.
As for U13C G27A C38U, the self-cleavage amounted to 0.74.
Regarding U14C A50G A129U, the self-cleavage was 0.11.
The value for C19U U47C U130C A140G was 1.29; that for U20C U85A C101U U132C was 0.12; that for A67U G126A A138G A142U was 0.11.
For G86U A94G U96C A140G, the self-cleavage was 0.
With A78G U100A C116U A138U A142U, the self-cleavage amounted to 0.07.
For the variant U96C U104C U132C, the self-cleavage is 0.18.
Consider A30G A43G U47A, for which the self-cleavage was found to be 1.04.
A24G C71U U109C: the self-cleavage is 0.26.
As to U85A U108C A140G, the self-cleavage is 0.18.
As for U26C A59U U73G U115C, the self-cleavage worked out at 0.92.
As to A50G A92G C113U, the self-cleavage came out at 0.15.
As to U39C U96A U130C, the self-cleavage turned out to be 0.08.
The value for A6G U9C G54A A107G A138G was 1.39; that for A6U U14C U62C U91C was 0.
Take U20C U23A A31U U109A A117U U134C: the self-cleavage was 1.69.
With U14C G27A U29C, the self-cleavage was found to be 1.87.
With A2U U52A U134C A142G, the self-cleavage stood at 1.03.
With A24U U46C A92U, the self-cleavage was 0.67.
On to U46A A65G U96A U132C, for which the self-cleavage turned out to be 0.
Consider U15C U62C A138G, for which the self-cleavage amounted to 0.1.
As for U46C C56A U91C U100C U115C, the self-cleavage was 0.17.
For the variant A30G U39C A124U, the self-cleavage came out at 1.08.
Consider A43G U85A U96C, for which the self-cleavage amounted to 0.08.
Consider U62A U91C U112A, for which the self-cleavage is 0.12.
For U23C A67G A124G A140G, the self-cleavage was 0.
For the variant C98U U102A U132A G135A A141G, the self-cleavage came out at 1.1.
As to A65U U96A U132A, the self-cleavage came to 0.04.
Consider A77G A78G A140G, for which the self-cleavage is 2.14.
On to A24G A31G A67G U85G, for which the self-cleavage amounted to 0.
Regarding U15C A31U U39C A50U, the self-cleavage was 0.44.
For the variant U12C U26G G70A U132C, the self-cleavage was determined as 0.16.
As to U26A U62C A78G U87C, the self-cleavage turned out to be 0.
In the case of U12C U39C U81A, the self-cleavage came out at 1.21.
